Conditions: Gallus gallus; pH 5.5; 35 °C; GdnHCl; Fluorescence; acetate 0.1 M; reversible: yes

Lysozyme C wild type (letters omitted)
denaturant m value: 2.7 kcal/mol/M | denaturant midpoint (higher = more stable): 3.62 M | unfolding free energy: 9.8 kcal/mol

From FireProtDB (doi:10.1093/oxfordjournals.jbchem.a124999)
